Among the data in paper PMC12136788 are binding signal values, retold here.

To fix the notation:
T1: UNK ZnF1-3 (human, UniProt Q9C0B0 31-174)
T1 sequence: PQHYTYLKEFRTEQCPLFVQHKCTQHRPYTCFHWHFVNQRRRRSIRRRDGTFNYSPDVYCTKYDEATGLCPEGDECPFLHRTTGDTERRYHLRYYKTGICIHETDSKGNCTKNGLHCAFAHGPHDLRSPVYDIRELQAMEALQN

B1: chr17:45747064:45747065:+_ENSG00000108424_ENST00000290158|hu_hu|hu_hu_hu_mus_True|18_58 (ssRNA)
RNA: GGGAGUUCUACAGUCCGACGAUCGCCCACAGUCCACGCUGUUGUGUCUCGAACAACUACACUGGGGUCUUUCAUUAAUUCUAUUAGGGUGGGCAUAGCCUGUAUGACUAAUGGUUUGAGCUGACUGGGCUCUGGUCCUUCCAACAACAGAGGAUUGAGCAUCA
B2: chr4:25749455:25749456:-_ENSG00000091490_ENST00000264868|hu_hu|hu_hu_hu_mus_False|18_108 (ssRNA)
RNA: GGGAGUUCUACAGUCCGACGAUCGCAAGCACUAGGAUAGAAAAAUCCACAGGGGGAAAAAAUGUAAACCAAUGUACAAUGUUAUCGCCUUCCCUGUGUGUGGAGUGUUUGUCUCAAUAUUUCAAGGAGCUGCUGGAUUUGGGACAACAGAGGAUUGAGCAUCA
B3: 133644272_133644621_340_3pUTR_ENSMUSG00000032637_ENSMUST00000167759|mouse|control|control (ssRNA)
RNA: GGGAGUUCUACAGUCCGACGAUCGGACAAGCAGAACGUCGCUUGGUUUAAACACCAUGGUGUCCACAAUGUCUUCCCGGCGAGGCCCACCUGCUGGCUCAGAUGCUUUCCGAUGCACCGCGUCAACUGCCAGUUCAAACUUUGCAACAGAGGAUUGAGCAUCA
B4: 138266576_138268338_2400_CDS_ENSG00000044115_ENST00000302763|human|control|control (ssRNA)
RNA: GGGAGUUCUACAGUCCGACGAUCCAGCUGGUGGCAGUAGAGGGCGAUGCGUUGCAGGUAGGCCAGCAGGUCCUGCUUGCAAGCCGAGUCGGGGCAAUGGUCUGCAAUGGUGCGGCCAAGCUUGUCCAUCCUGGAUCCUGCCUCCAACAGAGGAUUGAGCAUCA
B5: chr2:78710632:78710633:+_ENSMUSG00000027011_ENSMUST00000028398|mus_hu|FALSE|FALSE (ssRNA)
RNA: GGGAGUUCUACAGUCCGACGAUCUCAGGCUCUGGAGCGGCUGGGUCUCGCUGGUCCGCAUCUGAACUGCCACUGCUGGUGCUGGGGCUCUCAUCAUCGGACCUUUGCCUAUCACUGGACAUCUUGGUGAAGUUAUCUCUUGGACAACAGAGGAUUGAGCAUCA
B6: chr4:48472932:48472933:-_ENSMUSG00000028345_ENSMUST00000030030|mus_hu|FALSE|FALSE (ssRNA)
RNA: GGGAGUUCUACAGUCCGACGAUCAGUUGACGCAUUUGCCAGGGAGACCAUGAUAUCAGACAGUGUUAAAUUCAGUAAGAGAUGAUCUAUGUUAUUGGAGAGAACUGUGCAAUGCUUGAUGCUUUUAUUUGGCUCUUUCCUUUUCAACAGAGGAUUGAGCAUCA
B7: chr10:82349929:82349930:+_ENSMUSG00000020250_ENSMUST00000020484|mus_mus|motif|central (ssRNA)
RNA: GGGAGUUCUACAGUCCGACGAUCAUAACAUUUGUUGUUAUCCCGGGAUGGGACUGUCCAUUCCAAUGGCCAAAAGAAACGGUGGUAAACUUCAAUAUUUUCUUCCCCAAAUUUCUCUACGGCUUUUUCUUCAGAGAGGCCACACAACAGAGGAUUGAGCAUCA
B8: chr10:33190432:33190433:-_ENSG00000150093_ENST00000302278|hu_mus|hu_hu_hu_mus_True|48_58 (ssRNA)
RNA: GGGAGUUCUACAGUCCGACGAUCUACAUUUUCCAAACCUGCAUGUGAAUAAAACCCUGGCCACAGAGCCCCAAAACUACCUAACUGUGACUAUGGAGCUGCUGCUGUGAGCUUGGUGUUGCAAAAUCCGCCUGAGUAGGAUUCCAACAGAGGAUUGAGCAUCA
B9: chr1:173273950:173273951:-_ENSMUSG00000013997_ENSMUST00000111295|mus_hu|FALSE|FALSE (ssRNA)
RNA: GGGAGUUCUACAGUCCGACGAUCAGGCCCCUGCCCUGGAAUCUCUACGUCACACAGAUGUGUCUUCCUGUAAGUGGCCACUACUGCCCCUUUGCUGUUCAGCAGCACGUGACAAUUGUAGAUUUUCUGAGUCUGCUCCCAGUCCAACAGAGGAUUGAGCAUCA
B10: 13607888_13609275_1788_3pUTR_ENSMUSG00000031918_ENSMUST00000134674|mouse|control|control (ssRNA)
RNA: GGGAGUUCUACAGUCCGACGAUCAGUGACACUGUCUUCUUAGGAAGAUUCUCUUUCCCCCUCUGCUGUUCGCUGUUACAAAGGAAUGUUCCAAAUAAACAGCUGUACAAGUGGUCCAGGAUGGUAAUGAGAAAAUACUCAUUGCAACAGAGGAUUGAGCAUCA
B11: chr12:96259795:96259796:+_ENSG00000139343_ENST00000266735|hu_hu|FALSE|FALSE (ssRNA)
RNA: GGGAGUUCUACAGUCCGACGAUCAAGGACAUUAUUACACCUUAUUAAAACUUCACCCAGAUGUCCAGACAAAGCUCCAUCUAUGUAUUCUUCUGUAUUUGCAAGCUGCAUGUUCAUGUAGCCAUCUACAGAUACCAGAUAGCCCAACAGAGGAUUGAGCAUCA
B12: chr7:148783431:148783432:+_ENSMUSG00000002957_ENSMUST00000003038|mus_hu|FALSE|FALSE (ssRNA)
RNA: GGGAGUUCUACAGUCCGACGAUCACUCAGCAGGUUCACAGCCUCCAUGUGUCCAAAGUCAAUGUCAUGACCAAGGAGAAAGAUGAAGAGCAACUUGCAGACGUACUUUUUUUUACUAUAGCCAUCAAGAGCCUUGUCACCUUUCAACAGAGGAUUGAGCAUCA
B13: chr7:141441981:141441982:+_ENSG00000106028_ENST00000265304|hu_mus|hu_hu_hu_mus_False|28_48 (ssRNA)
RNA: GGGAGUUCUACAGUCCGACGAUCCUCAUGUCUUACAAACUGACGAAAUACCUGUAACACAGGUCUUCGAAACAUGGCUUCUGUUUUCUUUUCUUACUAAUCUUUAGUUAGGCUUUUAAGGAAAGAAAGAAAAGAGAAAAAUGACAACAGAGGAUUGAGCAUCA
B14: 90986679_90991893_1066_CDS_ENSG00000140575_ENST00000268182|human|control|control (ssRNA)
RNA: GGGAGUUCUACAGUCCGACGAUCCCCCAGGGCUGGUGACUGCAGAGCCCUGAACAAGGCCAGUGCAUCUCCUUGUUCUAAAGCCAGGUCGAUAUUUGCUAAUGCAGAAAAUGUAUUGACUUUGUUUAUAUUGCCUUGAAUUUCCAACAGAGGAUUGAGCAUCA

Some of the results follow.

For this experiment, the target named is T1, UNK ZnF1-3. In words: nsRBNS (natural sequence RNA bind-n-seq); RBNS binding buffer (assumed for nsRBNS): 25 mM Tris pH 7.5, 150 mM KCl, 3 mM MgCl2, 0.01% Triton X-100, 500 ug/ml BSA, 20 U/ml SUPERase-In, 4 C; UNK is unkempt and MSI1 is Musashi-1; names of the RNAs are library labels; protein concentration not given here; high values mean tight binding.
On to B1, for which the binding signal was 0.717 enrichment R.
As for B2, the figure is 1.55 enrichment R; as for B3, 1.03 enrichment R.
Molecule B4 came in with a binding signal of 0.544 enrichment R.
As for B5, the figure is 0.726 enrichment R; as for B6, 0.905 enrichment R.
The same measure for B7: 0.676 enrichment R.
The same measure for B8: 0.957 enrichment R; for B9: 0.647 enrichment R.
On to B10, for which the binding signal was 0.69 enrichment R.
As for B11, the figure is 0.574 enrichment R.
Consider B12, for which the binding signal came out at 0.996 enrichment R.
As for B13, the figure is 0.606 enrichment R.
As for B14, the figure is 0.727 enrichment R.
